Experimental data as given in patent US12338279B2, “Selective and potent inhibitory antibodies of myostatin activation” (SCHOLAR ROCK, INC., priority 2022, dated 2025).
“Also recorded” adds a separate entry of the source.

Experiments:
[1] = test system: biotinylated murine pro-myostatin; assay: Biacore 8k SPR binding affinity, murine pro-myostatin; set-up: species or system mouse
From the text: The Biacore™ 8 k SPR system was utilized to evaluate the binding affinity of myostatin antibodies to biotinylated human, murine, and cyno pro-myostatin. Biotin CAPture kit and sensor chips (Cytiva) were utilized in these experiments to immobilize the various antigens, followed by flowing a range of concentrations of each of the test antibodies.

human pro-myostatin = assay: SEC-MALS binding stoichiometry
Protocol: A combination of size exclusion chromatography and multi-angle light scattering (SEC-MALS) was used to determine the approximate mass and therefore the oligomeric state of the antibodies and their stoichiometry of binding to human promyostatin. The monoclonal antibody (mAb) or its Fab fragment was mixed with 50 μg of human pro-myostatin at a ratio of 1:1, 2:1 or 3:1 (antibody to antigen) for at least 24 hours at room temperature for immune complexes to form, filtered and injected into an analytical SEC column (Waters HPLC with a Superdex 200 10/300), flowed through a refractive index detector and then a miniDAWN® multi-angle light scattering detector to determine the mass. A full-length human-pro-myostatin with an N-terminal His6 tag (SEQ ID NO: 941) was used to express pro-myostatin in HEK cells. The signal peptide present in the construct is cleaved during biosynthesis. The resulting recombinant human pro myostatin was purified using the His6 tag (SEQ ID NO: 941) and used for the experiment.

[2] = Terminal serum antibody exposure, dexamethasone model; format: in vivo, mouse; conditions: day 1 and day 7, dexamethasone-treated mice
Protocol: Antibody exposure and circulating total myostatin levels were measured in the serum collected from the terminal bleeds after treatment with Ab2, Ab130 and Ab109. The results are shown in Table 15 and Table 16 respectively.

[3] = test system: diet-induced obese mice on liraglutide; assay: High fat diet (DIO) mice treated with liraglutide and antibody; format: in vivo, mouse
Protocol: Caloric restriction causes loss of both fat and lean mass; inhibiting myostatin maintains lean mass during weight loss. […] Changes in body composition were assessed by qNMR readout for fat mass and lean mass; gastrocnemius weight; and inguinal and perigonadal fat pad weight.
Ten-week-old male mice were fed formula D12492 ad lib, a high-calorie diet comprised of 60% fat, and remained on this diet throughout the study. The antibodies were dosed weekly and liraglutide was dosed daily. Body composition and body weight were measured by qNMR prior to dosing, at 2 weeks, and at the end of the dosing period body weight. Gastrocnemius muscles were removed, and their weights were measured after the animals were terminated.

total myostatin in serum = assay: Total serum myostatin, liraglutide study; format: in vivo, mouse; conditions: for Myostatin (total serum myostatin): terminal bleed serum
Protocol: Levels of the antibodies' exposure to myostatin in the serum was measured by assaying for total myostatin in the serum (Lakshman (2009) Cellular Endocrinol 302:26). […] The samples were then neutralized and assayed for mature growth factor.

[4] = test system: male C57/BL6 mice on high fat diet; assay: High fat diet mice treated with metformin and antibody; format: in vivo, mouse; conditions: for fat mass gain: FIG. 12A
Protocol: Male C57/BL6 mice were fed a 60% high fat diet beginning at six weeks of age. At nineteen weeks of age (day 0), the mice were switched to a 45% high fat diet for 63 days. […] These mice were further divided into groups that received either 50 mg/kg of metformin or no metformin (Table 22a).
Body weight and food intake were monitored three times per week throughout the study. On days 7, 35, 49, and 63, body composition was determined by qNMR, and glucose, ketones, and insulin were measured. At the end of the study on day 63, body composition was determined by qNMR; glucose, ketones, and insulin were measured, gastrocnemius muscle, whole liver, epididymal, and subcutaneous adipose tissue was collected and weighed.
Male C57/BL6 mice (n=8/group) were fed a 60% HFD until week 18, at which time they are switched to a 45% HFD for 7 days. At day 7, animals in group 3-6 were treated with 50 mg/kg/day metformin, given orally throughout the remainder of the study.
Body weight was measured three times per week; lean mass and fat mass were measured by qNMR on days 7, 35, 49, 63, and 77; serum glucose was also measured on days 7, 35, 49, 63, and 77; serum insulin was measured on days 49, 63, and 77. A glucose tolerance test (GTT) and an insulin tolerance test (ITT) was administered between day 56 and day 63.

[5] = test system: male C57/BL6 mice on high fat diet; assay: Diet-induced obesity model, semaglutide with Ab109 or Ab141 (Example 5); format: in vivo, mouse; conditions: antibody once weekly plus 0.040 mg/kg semaglutide daily, three weeks; FIGS. 13A-B
Protocol: Male C57/BL6 mice were a high-fat diet containing 60% fat then switched to a diet containing 45% fat. […] Body weight and body composition determined by qNMR were recorded at days 7, 14, and 21 after dosing. Gastrocnemius weight, inguinal, and perigonadal fat pad weights were recorded at the end of the study. Liver and terminal blood were collected to measure the levels of glucose and insulin.

[6] = test system: male C57/BL6 mice on high fat diet; assay: Diet-induced obesity model, semaglutide with Ab109, withdrawal and continuous arms (Example 6); format: in vivo, mouse
Protocol: Male C57/BL6 male mice (n=8/group) were either fed regular mouse chow (Group 1) or placed on a 60% high fat diet at six weeks of age and maintained on the 60% high fat diet until 21 weeks of age (Groups 2-8), at which time the study began (day 0). On day 0, animals in groups 2-8 were switched to a 45% high fat diet and maintained on the 45% high fat diet until the animals were terminated. […] Body weight was measured three times per week and qNMR measurements of lean mass and fat mass were obtained on the days set forth.
Animals in groups 3 and 4 were dosed with semaglutide weekly for 14 days, then terminated. Animals in groups 5 and 6 (weight regain groups), were treated with semaglutide for 35 days, then the semaglutide treatment was ended while the myostatin activation inhibiting antibody treatment continued until the animals were terminated on day 63. The animals in Groups 7 and 8 were treated with semaglutide for 63 days, i.e., they remained on semaglutide until the study terminated on day 63.
At termination, left and right gastrocnemius muscles were removed and frozen; the liver was weighed, one lobe was fixed, and the remainder was frozen; epididymal adipose tissue was removed and weighed; subcutaneous adipose tissue was removed and weighed; and a terminal serum bleed was obtained.

[7] = in combination with liraglutide

- Ka [1]: 6.81e+06 M⁻¹ s⁻¹
- Kd (1/s) [1]: 0.00134 s⁻¹
B1: Ab109: anti-pro/latent myostatin antibody; CDRs in Tables 2d-f, variable domains Table 3, chains Table 4 (antibody)
heavy: EVQLVESGGGLVQPGGSLRLSCAASGFTFSSYGMSWVRQAPGKGLELVASFTGSGGTYYPDSVKGRFTISRDNAKNSLYLQMNSLRAEDTAVYYCARDLLIRFLEWSHYYGMDVWGQGTTVTVSSASTKGPSVFPLAPCSRSTSESTAALGCLVKDYFPEPVTVSWNSGALTSGVHTFPAVLQSSGLYSLSSVVTVPSSSLGTKTYTCNVDHKPSNTKVDKRV[human IgG4 Fc with S228P (EU numbers) left out]
light: DIVMTQSPLSLPVTPGEPASISCRSSQSLLHSSGHNFLHWYLQKPGQSPQLLIYEVSNRVSGVPDRFSGSGSGTDFTLKISRVEAEDVGVYYCMQQTQYPPTFGGGTKVEIKRTVAAPSVFIFPPSDEQLKSGTASVVCLLNNFYPREAKVQWKVDNALQSGNSQESVTEQDSKDSTYSLSSTLTLSKADYEKHKVYACEVTHQGLSSPVTKSFNRGEC
- SEC-MALS Result (kDa) (human pro-myostatin; input ratio mAb:pro-myostatin 1:1): 311.4 kDa
- SEC-MALS Result (kDa) (human pro-myostatin; input ratio mAb:pro-myostatin 3:1): 319.6 kDa
- Terminal antibody exposure ([2]; dose 0.3 mg/kg): 2.8 µg/mL
- Terminal antibody exposure ([2]; dose 1 mg/kg): 104.9 µg/mL
- Terminal antibody exposure ([2]; dose 3 mg/kg): 67.3 µg/mL
- Terminal antibody exposure ([2]; dose 10 mg/kg): 470.2 µg/mL
- lean mass ([3]; antibody with liraglutide, FIG. 11E): lean mass increased; also recorded: greater increases in lean mass compared to Ab2
- gastrocnemius muscle mass ([3]; antibody with liraglutide, FIG. 11F): more effective at increasing gastrocnemius mass than Ab2
- subcutaneous inguinal fat pad fat mass [3, 7]: reduced the fat mass in the subcutaneous inguinal fat pad
- visceral perigonadal fat pad fat mass [3, 7]: reduced the fat mass in the visceral perigonadal fat pad to a greater extent
- body weight of mice on high fat diet ([3]; liraglutide daily, antibody weekly for four weeks, FIGS. 11A-D): lost more body weight compared to those treated with Ab2; also recorded: lost slightly less weight than those treated with liraglutide and an IgG control
- fat mass ([3]; with liraglutide, FIG. 11G): decreased fat mass to a greater extent than Ab2
- Myostatin (total serum myostatin) (total myostatin in serum; antibody 1 mg/kg/week + liraglutide 0.06 mg/kg q.d.): 12.2 ng/mL
- Myostatin (total serum myostatin) (total myostatin in serum; antibody 3 mg/kg/week + liraglutide 0.06 mg/kg q.d.): 4.7 ng/mL
- Myostatin (total serum myostatin) (total myostatin in serum; antibody 10 mg/kg/week + liraglutide 0.06 mg/kg q.d.): 5.6 ng/mL
- Myostatin (total serum myostatin) (total myostatin in serum; antibody 20 mg/kg/week + liraglutide 0.06 mg/kg q.d.): 4.5 ng/mL
- total serum myostatin (total myostatin in serum; liraglutide-treated mice, Table 21, FIG. 15B): reduced total serum myostatin concentrations compared to Ab2; also recorded: decrease in serum myostatin
- fat mass gain ([4]; combination of metformin 50 mg/kg and Ab109, 45% high fat diet): stopped the fat mass gain
- fat mass gain ([4]; metformin alone or Ab109 alone, 45% high fat diet): Neither metformin alone nor Ab109 alone showed this effect
- lean muscle mass ([4]; with or without metformin, FIG. 12B): gained more lean muscle mass regardless of whether they received metformin
- fat mass loss (subcutaneous and epididymal adipose tissue weight) [5]: increased fat mass loss as compared to Ab109 or Ab141 alone
- gastrocnemius muscle weight ([6]; 14 days of semaglutide treatment, group 4, FIG. 14E): preserved the gastrocnemius muscle weight
- further reduction of fasting blood glucose ([6]; Ab109 in conjunction with semaglutide, FIG. 14I): approximately 20%
- liver weight ([6]; Ab109 in conjunction with semaglutide, FIG. 14J): reduced liver weight
- fat mass loss ([6]; Ab109 with semaglutide, FIG. 14H): enhanced fat mass loss
- lean mass ([6]; Ab109 with semaglutide, FIGS. 14B, 14C, 14H): continued to increase their lean mass throughout the duration of the study; also recorded: had more lean mass than the animals treated with hIgG and semaglutide; also recorded: reversed lean mass loss
- fat mass regain after semaglutide withdrawal ([6]; FIG. 14D): regained less fat mass and regained it at a slower rate than those treated with control IgG
- body weight regain after semaglutide withdrawal ([6]; groups 5 and 6, FIG. 14A): regained weight at the same rate whether they were treated with hIgG or Ab109
- lean mass after semaglutide withdrawal ([6]; weight regain groups 5 and 6, FIG. 14B): gained more lean mass than those treated with hIgG after semaglutide was withdrawn
